The values that follow come from US5158958A, “Imidazo[4,5-b]quinolinyl oxy alkyl sulfonyl piperidine derivatives” (Bristol-Myers Squibb Company, priority 1992, dated 1992).

≈ marks a conversion by molar mass, not a printed value. Where a name gives a salt, the structure may show the parent alone. Where only a bound is given, the exact number is not on record here.

In this test the test system is human blood platelets. The test can be described thus: cells. The note with it: Platelet, read-out: IC50 vs ADP in human PRP.
One may read the IC50 as the point on the concentration scale where inhibition reaches its midpoint. Turning to `CCOC(=O)N1CCC(S(=O)(=O)CCCOc2ccc3nc4[nH]c(=O)[nH]c4cc3c2)CC1` [Cmpd 13a], the IC50 turned out to be 0.3 µg/mL (≈ 0.649 µM). For the molecule `CCOC(=O)N1CCC(S(=O)(=O)CCCCOc2ccc3nc4[nH]c(=O)[nH]c4cc3c2)CC1` [Cmpd 13b], the IC50 is 0.2 µg/mL (≈ 0.42 µM). With `O=c1[nH]c2cc3cc(OCCCS(=O)(=O)C4CCNCC4)ccc3nc2[nH]1` [Cmpd 17a, 4-[[3-[[(2-,3-Dihydro-2-oxo-1H-imidazo[4,5-b]guinolin7-yl)oxy]propylsulfonyl]piperidinedihydrochloride] the figure was above 32 µg/mL; with `O=c1[nH]c2cc3cc(OCCCS(=O)(=O)C4CCN(Cc5ccccc5)CC4)ccc3nc2[nH]1` [Cmpd 17b, 4-[[3-[2,3-Dihydro-2-oxy-1H-imidazo[4,5-b]quinolin-7-yloxy]propyl]sulfonyl]-1-(phenylmethyl)piperidine dihydrochloride], 0.014 µg/mL; with `O=c1[nH]c2cc3cc(OCCCS(=O)(=O)C4CCN(Cc5ccc(F)cc5)CC4)ccc3nc2[nH]1` [Cmpd 17c, 4-[[3-[2,3-Dihydro-2-oxo1H-imidazo[4,5-b]quinolin-7piperidinedihydrochloride], 0.012 µg/mL. With `O=c1[nH]c2cc3cc(OCCCS(=O)(=O)C4CCN(CC5CCCCC5)CC4)ccc3nc2[nH]1` [Cmpd 17d, 4-[[3-[2,3-Dihydro-2-oxo-1H-imidazo[4,5-b]quinolin-7-yl-oxy]propyl]sulfonyl]-(cyclohexylmethyl)piperidine dihydrochloride] the figure was 0.018 µg/mL; with `CCC(CC)CN1CCC(S(=O)(=O)CCCOc2ccc3nc4[nH]c(=O)[nH]c4cc3c2)CC1.Cl.Cl` [Cmpd 17e, 4-[[3-[2,3-Dihydro-2-oxo-1H-imidazo[4,5-b]quinolin-7yl-oxy]propyl]sulfonyl]1-(2-ethylbut-1yl)piperidine dihydrochloride], 0.022 µg/mL; with `CC(C)CN1CCC(S(=O)(=O)CCCOc2ccc3nc4[nH]c(=O)[nH]c4cc3c2)CC1` [Cmpd 17f, 4[[3-[2,3-Dihydro-2-oxo-1H-imidazo[4.5-b]quinolin-7yloxy]propyl]sulfonyll-1-(2-methylpropyl)piperidinedihydrochloride], 0.014 µg/mL. As for `O=c1[nH]c2cc3cc(OCCCS(=O)(=O)C4CCN(CCC5CCCCC5)CC4)ccc3nc2[nH]1` [Cmpd 17g, 1-(2-Cyclohexylethyl)-4-[[(3-[(2,3-dihydro-2-oxo-1H-imidazo[4,5-b]quinolin-7-yloxy]propyl]sulfonyl]piperidinedihydrochloride], the figure is 0.028 µg/mL; as for `O=c1[nH]c2cc3cc(OCCCS(=O)(=O)C4CCN(CCc5ccccc5)CC4)ccc3nc2[nH]1` [Cmpd 17h, 4-[[3-[2,3-Dihydro-2-oxo-1H-imidazo[4,5-b]quinolin-7-yl-oxy]propyl]sulfonyl]-b 1-(2-phenylethyl)piperidine dihydrochloride], 0.074 µg/mL; as for `O=c1[nH]c2cc3cc(OCCCS(=O)(=O)C4CCN(Cc5cccc(C(F)(F)F)c5)CC4)ccc3nc2[nH]1` [Cmpd 17i, 4-[3-[2,3-Dihydro-2-oxo1H-imidazo[4,5-b]quinolin-7-yl-oxy]propyl]sulfony]1-[(3-trifluoromethylhenvlmethyphenylmethyl]piperidine dihydrochloride], 0.024 µg/mL. Consider `O=c1[nH]c2cc3cc(OCCCS(=O)(=O)C4CCN(CC5CCCCO5)CC4)ccc3nc2[nH]1` (centres unmarked) [Cmpd 17k, 4[[2,3-Dihydro-2-oxo-1H-imidazo[4,5-b]quinolin-7-yl-pxy]propyl]sulfonyl]-1-[(tetrahydro-2H-pyran-2-yl)piperidine dihydrochloride], for which the IC50 amounted to 0.02 µg/mL. Regarding `O=c1[nH]c2cc3cc(OCCCCS(=O)(=O)C4CCNCC4)ccc3nc2[nH]1` [Cmpd 18a, 4-[[2,3-Dihydro-2-oxo-1H-imidazo[4,5-b]quinolin-7-yloxy]butyl]sulfonyl]piperidine dihydrochloride], the IC50 was 7.4 µg/mL. As for `O=c1[nH]c2cc3cc(OCCCCS(=O)(=O)C4CCN(Cc5ccccc5)CC4)ccc3nc2[nH]1` [Cmpd 18b, 4[[3-[2,3-Dihydro-2-oxo-1H-imidazo[4,5-b]quinolin-7-yloxyl]butylsulfonyl]-1-(phenylmethyl)piperidinedihydrochloride], the figure is 0.024 µg/mL; as for `O=c1[nH]c2cc3cc(OCCCCS(=O)(=O)C4CCN(CC5CCCCC5)CC4)ccc3nc2[nH]1` [Cmpd 18d, 1-(Cyclohexylmethyl)-4-[[3-[2,3-Dihydro-2-oxo-1H-imidaxo [4,5-b]quinolin-7-yloxy]butylsulfonylpiperidinedihydrochloride], 0.018 µg/mL; as for `O=c1[nH]c2cc3cc(OCCCCS(=O)(=O)C4CCN(Cc5ccc(F)cc5)CC4)ccc3nc2[nH]1` [l8c, dihydrochloride], 0.04 µg/mL.

With `CCC(CC)CN1CCC(S(=O)(=O)CCCCOc2ccc3nc4[nH]c(=O)[nH]c4cc3c2)CC1` [l8e, 4[[3-[2,3-Dihydro-2-oxo-1H-imidazo[4.5-b]qouinolin-7-yloxy]butylsulfonyl]-1-(2-ethylbut-1-yl)piperidinedihydrochloride], the half-maximal inhibitory concentration (IC50) worked out at 0.012 µg/mL.
